# Laboratory results reported in US20180057551A1 (AMYLONIX, published 2018).
# Columns and labels:
# [1] = target: T1, human Aβ1-40 peptide (human, biotin at the C-terminus (flow cytometry, Examples 2-4) or at the N-terminus (SPR, ELISA); unlabeled plus Alexa488/Alexa647-labeled in FCS); assay: sandwich ELISA, periplasmic ABD fusion, 2 nM biotinylated hAβ1-40
# T1 construct: synthetic peptide (AnaSpec); one entry for all labelled forms, label named under assay; also called hAβ1-40; Aβ40
# Experimental: Half-area 96-well ELISA plates (Costar, cat. no. 3690) were coated at 4° C. overnight with 2 μg/ml of an anti-ABD goat antibody (produced in-house) diluted in coating buffer (50 mM sodium carbonate, pH 9.6; Sigma, cat. no. C3041).
# [2] = target: T1, human Aβ1-40 peptide; assay: ELISA, fusion captured by anti-ABD antibody, biotinylated hAβ1-40 titrated
# [3] = target: T1, human Aβ1-40 peptide; assay: SPR Biacore 2000, periplasmic sample over immobilised biotinylated hAβ1-40
# [4] = target: T2, anti-ABD goat antibody (produced in-house); assay: SPR Biacore 2000, periplasmic sample over immobilised anti-ABD goat antibody
# T2 construct: also called Anti-ABD surface
# T1 sequence (peptide, as listed by the source): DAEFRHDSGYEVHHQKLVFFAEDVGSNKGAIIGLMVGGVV
Binder,ELISA response (absorbance 450 nm) [1] [AU],EC50 [2] [nM],Response RU [3] [RU],Response RU [4] [RU]
"AQHDEALE-[ABPP113]-VDYV-[ABD]-YVPG (designed binder, periplasmic ABD fusion) AQHDEALEAGRERVYIPNLNADQLCAFIRSLEDDPSQSANLLAEAKKLNDAQAPASSSSGSSSSGRASAGGEIVYFPNLNADQLCAFIRSLEDDPSQSANLLAEAKKLNDAQAPKVDYVLAEAKVLANRELDKYGVSDYYKNLINNAKTVEGVKALIDEILAALPYVPG",≥ 0.2,3.8,20.2,42
"AQHDEALE-[ABPP121]-VDYV-[ABD]-YVPG (designed binder, periplasmic ABD fusion) AQHDEALEAGRERVYLYNLNADQLCAFIRSLEDDPSQSANLLAEAKKLNDAQAPASSSSGSSSSGRASAGGERVYLPNLNADQLCAFIRSLEDDPSQSANLLAEAKKLNDAQAPKVDYVLAEAKVLANRELDKYGVSDYYKNLINNAKTVEGVKALIDEILAALPYVPG",≥ 0.2,59,47.5,47.4
"AQHDEALE-[ABPP130]-VDYV-[ABD]-YVPG (designed binder, periplasmic ABD fusion) AQHDEALEAGGEIVYFPNLNADQLCAFIRSLEDDPSQQANLLAEAKKLNDAQAPASSSSGSSSSGRASAGRERVYLPNLNADQLCAFIRSIEDDQSQRANLLAEAKKLNDAQAPKVDYVLAEAKVLANRELDKYGVSDYYKNLINNAKTVEGVKALIDEILAALPYVPG",≥ 0.2,6,21,44.6
"AQHDEALE-[ABPP132]-VDYV-[ABD]-YVPG (designed binder, periplasmic ABD fusion) AQHDEALEAGGERVYLPNLNADQLCAFIRSLEDDPSQSANLLAEAKKLNDAQAPASSSSGSSSSGRASAGGERVYLPNLNADQLCAFIQSLEDDPSQSANLLAEAKKLNDAQAPKVDYVLAEAKVLANRELDKYGVSDYYKNLINNAKTVEGVKALIDEILAALPYVPG",≥ 0.2,8.1,23,45.3
"AQHDEALE-[ABPP133]-VDYV-[ABD]-YVPG (designed binder, periplasmic ABD fusion) AQHDEALEAGRERVYLPNLNADQLCAFIRSLEDDPSQSANLLAEAKKLNDAQAPASSSSGSSSSGRASAGGEIVYITNLNADQLCAFIQSLEDDPSQSANLLAEAKKLNDAQAPKVDYVLAEAKVLANRELDKYGVSDYYKNLINNAKTVEGVKALIDEILAALPYVPG",≥ 0.2,420,14.5,38.9
"AQHDEALE-[ABPP115]-VDYV-[ABD]-YVPG (designed binder, periplasmic ABD fusion) AQHDEALEAGRERVYLPNLNADQLCAFIQSLEDDSSQSANLLAEAKKLNDAQAPASSSSGSSSSGRASAGGEIVYFPNLNAHQLCAFIRSLEDDPSQSANLLAEAKKLNDAQAPKVDYVLAEAKVLANRELDKYGVSDYYKNLINNAKTVEGVKALIDEILAALPYVPG",≥ 0.2,3.9,13.3,39.7
"AQHDEALE-[ABPP119]-VDYV-[ABD]-YVPG (designed binder, periplasmic ABD fusion) AQHDEALEAGRERVYLPNLNADQLCAFIQSLEDDSSQSANLLAEAKKLNDAQAPASSSSGSSSSGRASAGGERVYFRNLNAHQLCAFIRSLEDDPSQSANLLAEAKKLNDAQAPKVDYVLAEAKVLANRELDKYGVSDYYKNLINNAKTVEGVKALIDEILAALPYVPG",≥ 0.2,3.9,15.6,31.8
"AQHDEALE-[ABPP127]-VDYV-[ABD]-YVPG (designed binder, periplasmic ABD fusion) AQHDEALEAGRERVYLPNLNAHQLCAFIRSLEDDSSQSANLLAEAKKLNDAQAPASSSSGSSSSGRASAGGEIVYFPNLNADQLCAFINSLEDDPSQSANLLAEAKKLNDAQAPKVDYVLAEAKVLANRELDKYGVSDYYKNLINNAKTVEGVKALIDEILAALPYVPG",≥ 0.2,5.7,9.1,31.9
"AQHDEALE-[ABPP117]-VDYV-[ABD]-YVPG (designed binder, periplasmic ABD fusion) AQHDEALEAGRERVYLPNLNAHQLCAFIRSLEDDPSQSANLLAEAKKLNDAQAPASSSSGSSSSGRASAGGEIVYFPNLNADQLCAFIRSLEDDSSQSANLLAEAKKLNDAQAPKVDYVLAEAKVLANRELDKYGVSDYYKNLINNAKTVEGVKALIDEILAALPYVPG",≥ 0.2,6.4,9.7,31.6
"AQHDEALE-[ABPP120]-VDYV-[ABD]-YVPG (designed binder, periplasmic ABD fusion) AQHDEALEAGGEIVYFPNLNAHQLCAFIQSLEDDPSQNANLLAEAKKLNDAQAPASSSSGSSSSGRASAGGERVYFPNLNADQLCAFIRSLEDDPSQSANLLAEAKKLNDAQAPKVDYVLAEAKVLANRELDKYGVSDYYKNLINNAKTVEGVKALIDEILAALPYVPG",≥ 0.2,3.5,13.1,37.7
"AQHDEALE-[ABPP129]-VDYV-[ABD]-YVPG (designed binder, periplasmic ABD fusion) AQHDEALEAGGERVYLTNLNADQLCAFIRSLEDDPSQSANLLAEAKKLNDAQAPASSSSGSSSSGRASAGRERVYLPNLNADQLCAFIRSLEDDRSQQANLLAEAKKLNDAQAPKVDYVLAEAKVLANRELDKYGVSDYYKNLINNAKTVEGVKALIDEILAALPYVPG",≥ 0.2,9,35.8,43.6
"AQHDEALE-[ABPP126]-VDYV-[ABD]-YVPG (designed binder, periplasmic ABD fusion) AQHDEALEAGRERVYLPNLNAHQLCAFIQSLEDDPSQSANLLAEAKKLNDAQAPASSSSGSSSSGRASAGGERVYLPNLNADQLCAFIRSLEDDPSQSANLLAEAKKLNDAQAPKVDYVLAEAKVLANRELDKYGVSDYYKNLINNAKTVEGVKALIDEILAALPYVPG",≥ 0.2,5.9,17.8,37.8
"AQHDEALE-[ABPP116]-VDYV-[ABD]-YVPG (designed binder, periplasmic ABD fusion) AQHDEALEAGRERVYLPNLNADQLCAFIRSLEDDPSQSANLLAEAKKLNDAQAPASSSSGSSSSGRASAGGERVYLPNLNADQLCAFINSLEDDPSQSANLLAEAKKLNDAQAPKVDYVLAEAKVLANRELDKYGVSDYYKNLINNAKTVEGVKALIDEILAALPYVPG",≥ 0.2,3.7,15.1,40
"AQHDEALE-[ABPP118]-VDYV-[ABD]-YVPG (designed binder, periplasmic ABD fusion) AQHDEALEAGRERVYIPNLNADQLCAFIRSLEDDPSQSANLLAEAKKLNDAQAPASSSSGSSSSGRASAGGEIVYFPNLNAHQLCAFIRSLEDDPSQSANLLAEAKKLNDAQAPKVDYVLAEAKVLANRELDKYGVSDYYKNLINNAKTVEGVKALIDEILAALPYVPG",≥ 0.2,5.2,19.2,41.2
"AQHDEALE-[ABPP124]-VDYV-[ABD]-YVPG (designed binder, periplasmic ABD fusion) AQHDEALEAGGERVYLPNLNADQLCAFIRSLEDDPSQNANLLAEAKKLNDAQAPASSSSGSSSSGRASAGGERVYFPNLNADQLCAFIRSLEDDPSQSANLLAEAKKLNDAQAPKVDYVLAEAKVLANRELDKYGVSDYYKNLINNAKTVEGVKALIDEILAALPYVPG",≥ 0.2,13,23.3,41
"AQHDEALE-[ABPP123]-VDYV-[ABD]-YVPG (designed binder, periplasmic ABD fusion) AQHDEALEAGRERVYIPNLNAHQLCAFIRSLEDDPSQSANLLAEAKKLNDAQAPASSSSGSSSSGRASAGGEIVYFPNLNADQLCAFINSLEDDPSQSANLLAEAKKLNDAQAPKVDYVLAEAKVLANRELDKYGVSDYYKNLINNAKTVEGVKALIDEILAALPYVPG",≥ 0.2,5.4,15.5,38.8
"AQHDEALE-[ABPP131]-VDYV-[ABD]-YVPG (designed binder, periplasmic ABD fusion) AQHDEALEAGGERVYLTNLNADQLCAFIRSLEDDPSQSANLLAEAKKLNDAQAPASSSSGSSSSGRASAGRERVYLPNLNAHQLCAFIRSLEDDPSQQANLLAEAKKLNDAQAPKVDYVLAEAKVLANRELDKYGVSDYYKNLINNAKTVEGVKALIDEILAALPYVPG",≥ 0.2,6.8,18.9,34.7
"AQHDEALE-[ABPP125]-VDYV-[ABD]-YVPG (designed binder, periplasmic ABD fusion) AQHDEALEAGRERVYLPNLNADQLCAFIRSLEDDPSQNANLLAEAKKLNDAQAPASSSSGSSSSGRASAGGERVYFPNLNADQLCAFIRSLEDDPSQSANLLAEAKKLNDAQAPKVDYVLAEAKVLANRELDKYGVSDYYKNLINNAKTVEGVKALIDEILAALPYVPG",≥ 0.2,4.3,18.4,38.6
"AQHDEALE-[ABPP122]-VDYV-[ABD]-YVPG (designed binder, periplasmic ABD fusion) AQHDEALEAGGERVYFPNLNAHQLCAFIRSLEDDPSQSANLLAEAKKLNDAQAPASSSSGSSSSGRASAGGERVYLPNLNADQLCAFIRSLEDDPSQSANLLAEAKKLNDAQAPKVDYVLAEAKVLANRELDKYGVSDYYKNLINNAKTVEGVKALIDEILAALPYVPG",≥ 0.2,5.2,30.1,47.6
"AQHDEALE-[ABPP128]-VDYV-[ABD]-YVPG (designed binder, periplasmic ABD fusion) AQHDEALEAGGERVYLTNLNADQLCAFIRSLEDDPSQSANLLAEAKKLNDAQAPASSSSGSSSSGRASAGRERVYLPNLNADQLCAFIRSLEDDPSQQANLLAEAKKLNDAQAPKVDYVLAEAKVLANRELDKYGVSDYYKNLINNAKTVEGVKALIDEILAALPYVPG",≥ 0.2,5.2,33,48.7
